# In all, about 330,000 compounds went through this assay and about 4,200 (1.3%) were called active. The inconclusive results got no clear call from the source; some entries with a clear call stand among them for comparison. Calls follow the shape of the dose curve; as a rule, active = well fitted activation curve with a large enough effect; inconclusive = small, poorly fitted or top-dose-only effect; inactive = no such curve, though single readings can be large or run the other way. Potencies beside an inconclusive call are fits to weak or partial responses and may not hold up.
# Test: qHTS screen for small molecules that induce genotoxicity in human embryonic kidney (HEK293T) cells expressing luciferase-tagged ELG1; also: nearly all actives have a fitted effect of over 60% in size; as to activity change, positive = activation: % of control where 0% means no effect
# Conditions: HEK293T ELG1-luciferase reporter, luminescence, 16 h; series mostly up to 46 µM; activity change, positive = activation: at the top concentration
# Outline: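 DMSO vehicle served as control against compound-treated ELG1-luciferase HEK293T cells; exposure lasted 16 hr at 37 °C and 5% CO2, followed by ONE-Glo luminescence detection after 30 min.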
# Potency is read from the fitted curve at half-maximal effect; tags tell the direction and shape of the fitted curve.
Compound,"activity change, positive = activation",Potency
CCCCC(=O)Nc1ccc2c(c1)nc(CCN1CCN(c3ccccn3)CC1)n2C,inactive: -5.86%,
COc1ccc(C(=O)n2c(N)nc3ccccc32)cc1OC,,"inconclusive: 5.8 µM [activator, partial curve, poor fit]"
O=C(Cc1ccccc1[N+](=O)[O-])NCc1ccccc1Cl,,"inconclusive: 9.2 µM [activator, partial curve, poor fit]"
COc1cccc(COC(=O)c2c(C)nn(-c3ccccc3)c2Cl)c1OC,,"inconclusive: 23.1 µM [activator, partial curve, poor fit]"
O=C(NC1CC1)c1ccc(S(=O)(=O)NCC2CCCCC2)cc1,inactive: 10.9%,
Clc1ccccc1CSc1nc2ccncc2[nH]1,,active: 18.4 µM
S=C(c1ccc(-c2ccccc2Cl)o1)N1CCOCC1,,active: 12.6 µM
CCN(CC)c1ccc(C=Nc2ccc(C)cc2C)c(O)c1,inactive: 9.31%,
COc1cc2c(cc1OC)-c1cc(NC3CCCCC3)nc(=O)n1CC2,,"inconclusive: 11.6 µM [activator, partial curve, poor fit]"
Cc1ccc(C2=NN(S(C)(=O)=O)C(c3ccc4c(c3)OCO4)C2)cc1 (configuration not stated),,active: 5.17 µM
Cc1cccc(-n2ncc3c(NC4CCCCC4)ncnc32)c1,,"inconclusive: 2.91 µM [activator, partial curve]"
CC(C)(C)CC(=O)O/N=C(\N)c1ccccn1,,active: 2.59 µM
Fc1cccc(CSc2ncnc3c2oc2ccccc23)c1,,"inconclusive: 29.1 µM [activator, partial curve, poor fit]"
O=C(/C=C/c1ccccc1)Nc1sc2c(c1C(=O)O)CCC2,inactive: -0.509%,
COc1ccc(-c2csc(N(C)C(=O)c3ccco3)n2)cc1,,"inconclusive: 11.6 µM [activator, partial curve, poor fit]"
COc1cc(NC(=O)CN2CCN(C(=O)C3CCCO3)CC2)c(OC)cc1Cl (configuration not stated),inactive: 4.58%,
CCOc1ccc(N/C(C)=C/C(=O)c2ccc(C)o2)cc1,,"inconclusive: 10 µM [activator, partial curve]"
CN(C)c1ccc(/C=N/NC(=O)c2ccc3c(c2)OCO3)cc1,,"inconclusive: 23.1 µM [activator, partial curve, poor fit]"
COc1ccc(Cl)cc1NC(=O)COC(=O)C1CC(=O)N(Cc2ccccc2)C1 (configuration not stated),inactive: 2.49%,
COc1cc(SC)ccc1C(=O)Nc1cccc(C)n1,,"inconclusive: 2.59 µM [activator, partial curve]"
CCCCSc1nc2sc3c(c2c(=O)[nH]1)CCC3,,"inconclusive: 23.1 µM [activator, single point]"
COC(=O)c1ccc(COc2ccc(C(C)(C)C)cc2)o1,,"inconclusive: 4.11 µM [activator, full curve]"
O=C(Nc1ccc(N2CCOCC2)cc1)c1ccc(Br)o1,,"inconclusive: 0.82 µM [activator, full curve, poor fit]"
CSc1nsc2nc(=O)c(/C=C3\C=Nc4ccccc43)c(N)n12,,"inconclusive: 18.3 µM [activator, partial curve, poor fit]"

Compound,"activity change, positive = activation",Potency
CC1CCC(NC(=O)C2CCC(CNS(=O)(=O)c3cccc4nsnc34)CC2)CC1 (configuration not stated),,"inconclusive: 20.6 µM [activator, partial curve, poor fit]"
O=C1CC(c2ccc(O)cc2)Oc2ccccc21 (configuration not stated),,"inconclusive: 16.4 µM [activator, single point]"
COc1ccc(-c2csc(NC(=O)C3CCN(C(=O)c4ccc(F)cc4)CC3)n2)cc1OC,inactive: -11%,
Cc1ccc(COc2ccc3c(c2)OCO3)cc1,,"inconclusive: 2.06 µM [activator, partial curve, poor fit]"
Cc1cc(/C=C2/SC(=O)N(CC(=O)OC(C)C)C2=O)c(C)n1C,,"inconclusive: 9.2 µM [activator, partial curve]"
Cc1nn(-c2ccccc2)c(Cl)c1/C=N/O,inactive: 7.84%,
Cc1ccsc1C(=O)C1CCCN(Cc2cc(F)ccc2-n2cccn2)C1 (configuration not stated),inactive: -13.2%,
COC(=O)C1=C(C)Nc2c(c(=O)n(C)c(=O)n2C)C1c1ccc(C)cc1 (configuration not stated),,"inconclusive: 20.6 µM [activator, single point]"
CC(=O)N1CCN(c2ccc(NC(=O)c3ccco3)cc2)CC1,,"inconclusive: 11.6 µM [activator, partial curve]"
Cc1ccc(S(=O)(=O)n2ccc3c2CCCC3=O)cc1,,"inconclusive: 23.1 µM [activator, partial curve, poor fit]"
Fc1ccc(Nc2nc3ccccc3s2)cc1,,"inconclusive: 16.4 µM [activator, partial curve]"
Cn1c(=NC(=O)C2CC2)sc2cccc(F)c21,,"inconclusive: 25.9 µM [activator, partial curve, poor fit]"
O=C(c1cccc(Cl)c1)N1CCCc2ccccc21,inactive: -4.29%,
CC1(c2ccc(Cl)cc2)NC(=O)N(CC(=O)Nc2ccc(N3CCCCC3)cc2)C1=O (configuration not stated),inactive: 2.28%,
CN(C)C(=O)COC(=O)c1ccccc1Nc1ccc(SC(F)F)cc1,,"inconclusive: 20.6 µM [activator, partial curve, poor fit]"
O=c1cc(-c2ccccc2)nc2nc(-c3ccccc3)[nH]n12,,active: 18.4 µM
CCOc1ccc(/C=C2/Sc3ccc(C(=O)N4CCOCC4)cc3N(C)C2=O)cc1OC,inactive: -9.68%,
C=CCn1c(C)nnc1SCC(=O)Nc1nccs1,inactive: 1.08%,
CC(C)(C)c1ccc(N=C2SCC(=O)N2Cc2cccs2)cc1,,"inconclusive: 29.1 µM [activator, partial curve, poor fit]"
COc1cc(NC(=S)N2CCN(C(c3ccccc3)c3ccccc3)CC2)cc(OC)c1,inactive: -18.6%,
Cc1cc(/C=C2\C(=N)N3N=CSC3=NC2=O)c(C)n1Cc1ccccc1,,"inconclusive: 20.6 µM [activator, partial curve]"
CC(=O)Nc1ccc(/C=C2\Sc3ccccc3C2=O)cc1,,"inconclusive: 20.6 µM [activator, single point]"
CC(C)=CC(=O)Nc1nnc(-c2ccccc2C)s1,,"inconclusive: 20.6 µM [activator, single point]"
Cc1ccc(/C=N/Nc2ncc(Cl)cc2Cl)s1,,"inconclusive: 2.31 µM [activator, partial curve]"

Compound,"activity change, positive = activation",Potency
CN(C)/C=C(\C#N)c1nc2ccccc2[nH]1,,"inconclusive: 23.1 µM [activator, partial curve, poor fit]"
Cc1cccc(-c2nc(C#N)c(NCc3ccco3)o2)c1,,"inconclusive: 10.3 µM [activator, partial curve]"
CC[C@]12c3[nH]c4cc(CCC(=O)N(C)C)ccc4c3CCN1C(=O)[C@@H](CC(=O)NC/C=C(\C)CCC=C(C)C)C[C@@H]2C(=O)N1CCN(C(=O)c2ccco2)CC1,,"inconclusive: 3.26 µM [activator, partial curve, poor fit]"
Cn1cc(C(=O)C(=O)N2CCc3ccccc32)c2ccccc21,,"inconclusive: 5.8 µM [activator, single point]"
COCC(C)n1c(SCC(=O)Nc2c(C)n(C)n(-c3ccccc3)c2=O)nc2ccccc2c1=O (configuration not stated),inactive: 1.1%,
O=[N+]([O-])c1cccc(-c2nc(-c3ccncc3)no2)c1,,"inconclusive: 18.4 µM [activator, partial curve, poor fit]"
O=C(O)c1ccc(N/N=C2/CCCc3ccccc32)cc1,,"inconclusive: 18.3 µM [activator, partial curve, poor fit]"
CN(C)CCNC(=O)c1nn(C)c2c1CCc1ccccc1-2,inactive: 0.436%,
O=C(COc1ccccc1)Nc1nnc(-c2ccccc2)o1,inactive: -0.38%,
COc1ccccc1-n1cnc2cc(NCc3cccs3)ccc21,,"inconclusive: 11.2 µM [activator, partial curve, poor fit]"
COc1ccc(NC(=O)c2cccc([N+](=O)[O-])c2)cc1,,"inconclusive: 0.92 µM [activator, partial curve, poor fit]"
COc1ccc(-c2nnc(NC(=O)c3cc(C)on3)s2)cc1,,"inconclusive: 20.6 µM [activator, partial curve, poor fit]"
Cc1cc(/C=N\NC(=O)c2cccs2)c(C)n1-c1ccc2ncccc2c1,,"inconclusive: 2.59 µM [activator, partial curve, poor fit]"
Cc1ccccc1CNC(=O)Cc1cccs1,,"inconclusive: 25.9 µM [activator, partial curve, poor fit]"
COc1ccc(CN2CCN(C(=O)CCC(=O)Nc3nnc(CC(C)C)s3)CC2)cc1F,inactive: -1.86%,
Cc1ccc(N=CC2=C(O)CC(c3ccc(Cl)cc3)CC2=O)cc1 (configuration not stated),,"inconclusive: 32.6 µM [activator, partial curve, poor fit]"
CCNc1nc(Cl)nc(NCCOc2ccc(C)cc2)n1,,"inconclusive: 18.4 µM [activator, partial curve, poor fit]"
CCCCNC(=O)Nc1nc2ccccc2s1,,"inconclusive: 0.82 µM [activator, partial curve, poor fit]"
COc1cccc(-c2cc(C(=O)N3CCCc4ccccc43)no2)c1,inactive: 7.07%,
COc1cccc(/C=N/N2CCOCC2)c1O,,"inconclusive: 23.1 µM [activator, partial curve, poor fit]"
O=C(Cn1cc(S(=O)(=O)Cc2cccc([N+](=O)[O-])c2)c2ccccc21)N1CCOCC1,inactive: -0.1%,
COc1ccc(OCCOC(=O)CNC(=O)c2ccc(Cl)cc2Cl)cc1,inactive: 3.17%,
O=C(/C=C/Nc1ccccc1O)c1ccco1,,active: 20.6 µM
Cc1ccc(CN2CCN(Cc3cn[nH]c3-c3cccc(F)c3)CC2CCO)o1 (configuration not stated),inactive: 2.33%,

# From PubChem BioAssay AID504466 (National Center for Advancing Translational Sciences (NCATS), 2011)
